The record followed here is the supplement of paper PMC10037445.

For assay [1], the system named is RAW-Dual. The assay can be described thus: NF-kB SEAP reporter activity, fold change vs agonist alone; higher = enhanced NF-kB activity. The essentials:
(§1)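 Cytotoxic wells were those whose IncuCyte confluency was below 70% of agonist controls in both mask sets. The cells were RAW-Dual macrophages at 50,000 cells/well in DMEM on 384-well plates, dosed with 50 nL of library stock by pin tool, stimulated with a PRR agonist 1 h later, and kept at 37 °C, 5% CO2 for 20 hours. IRF and NF-κB reporter activity, as fold change over agonist-alone wells, came from supernatant read by QuantiLuc luminescence and QuantiBlue absorbance, respectively.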

The test system of assay [2] is RAW-Dual. The assay can be described thus: NF-kB SEAP reporter activity, fold change vs agonist alone; cytotoxicity flag (confluency mask): cytotoxic (confluency <70% of control); higher = enhanced NF-kB activity. Summed up:
as §1

In assay [3] the test system is RAW-Dual. The assay can be described thus: NF-kB SEAP reporter activity, fold change vs agonist alone; cytotoxicity flag (confluency mask): not cytotoxic; higher = enhanced NF-kB activity. Summed up: as §1
Setting [4] is: library stock concentration (final ~1000-fold dilution): 10 mM, cytotoxicity flag (confluency mask): not cytotoxic, agonist: Imiquimod (TLR7) […].
Setting [5] is: library stock concentration (final ~1000-fold dilution): 10 mM, cytotoxicity flag (confluency mask): not cytotoxic, agonist: MPLA (TLR4) […].
Where [6] appears, read: agonist: ODN 1826 (TLR9) 0.5 ug/mL.
Where [7] appears, read: agonist: Pam2CSK4 (TLR2/6) 0.1 ug/mL.
Setting [8] is: agonist: Pam3CSK4 (TLR2/1) 0.1 ug/mL.

Whole data set: some 2,900 compounds, median “NF-kB SEAP reporter activity, fold change vs agonist alone” near 0.99, cut for the highest 2% near 2.6. The list shows a part of the results.

With `CN1CCC(OC(c2ccccc2)c2ccccc2)CC1.Cl`, the “NF-kB SEAP reporter activity” value was 1.28 in assay [1] (setting [4]) and 1.17 in assay [1] (setting [5]).
Turning to `CCC1(O)CC2CN(CCc3c([nH]c4ccccc34)C(C(=O)OC)(c3cc4c(cc3OC)N(C)C3C(O)(C(=O)OC)C(OC(C)=O)C5(CC)C=CCN6CCC43C65)C2)C1.O=S(=O)(O)O` (configuration not stated), the “NF-kB SEAP reporter activity” value came out at 2.51 in assay [1] (library stock concentration (final ~1000-fold dilution): 10 mM, cytotoxicity flag (confluency mask): cytotoxic (confluency <70% of control), agonist: Imiquimod (TLR7) […]) and 2.53 in assay [1] (library stock concentration (final ~1000-fold dilution): 10 mM, cytotoxicity flag (confluency mask): cytotoxic (confluency <70% of control), agonist: MPLA (TLR4) […]).
Take `CCC1(O)CC2CN(CCc3c([nH]c4ccccc34)C(C(=O)OC)(c3cc4c(cc3OC)N(C)C3C(O)(C(=O)OC)C(OC(C)=O)C5(CC)C=CCN6CCC43C65)C2)C1.O=S(=O)(O)O` (configuration not stated) (library stock concentration (final ~1000-fold dilution): 10 mM): the “NF-kB SEAP reporter activity” value amounted to 5.91 in assay [2] (agonist: LPS (TLR4) 0.1 ug/mL), 2.96 in assay [2] (setting [6]), 1.48 in assay [2] (setting [7]) and 1.94 in assay [2] (setting [8]).
Turning to `CC(=O)c1c(C)c2cnc(Nc3ccc(N4CCNCC4)cn3)nc2n(C2CCCC2)c1=O.Cl` (library stock concentration (final ~1000-fold dilution): 10 mM water), the “NF-kB SEAP reporter activity” value was determined as 1.7 in assay [3] (agonist: LPS (TLR4) 0.1 ug/mL), 0.27 in assay [3] (setting [6]), 0.715 in assay [3] (setting [7]) and 1.13 in assay [3] (setting [8]).
`CC(=O)c1c(C)c2cnc(Nc3ccc(N4CCNCC4)cn3)nc2n(C2CCCC2)c1=O.Cl`: the “NF-kB SEAP reporter activity” value in assay [1] (library stock concentration (final ~1000-fold dilution): 10 mM water, cytotoxicity flag (confluency mask): not cytotoxic, agonist: Imiquimod (TLR7) […]) is 0.698; in assay [1] (library stock concentration (final ~1000-fold dilution): 10 mM water, cytotoxicity flag (confluency mask): not cytotoxic, agonist: MPLA (TLR4) […]), 1.11.
As to `Cc1ccc(C(=O)c2ccc(CC(=O)O)n2C)cc1`, the “NF-kB SEAP reporter activity” value in assay [1] (setting [5]) was 1.07.
Regarding `Cc1ccc(C(=O)c2ccc(CC(=O)O)n2C)cc1` (library stock concentration (final ~1000-fold dilution): 10 mM), the “NF-kB SEAP reporter activity” value in assay [3] (agonist: LPS (TLR4) 0.1 ug/mL) was 0.948; in assay [3] (setting [6]), 0.987; in assay [3] (setting [7]) it was 1.08; in assay [3] (setting [8]), 1.07.
For `CC(C)(C)C(=O)Nc1ccc2c(c1)C(=O)C(=O)c1ccccc1-2`, the “NF-kB SEAP reporter activity” value in assay [1] (setting [4]) turned out to be 0.149; in assay [1] (setting [5]), 0.156.
`CC(C)(C)C(=O)Nc1ccc2c(c1)C(=O)C(=O)c1ccccc1-2` (library stock concentration (final ~1000-fold dilution): 10 mM): the “NF-kB SEAP reporter activity” value was 0.226 in assay [3] (agonist: LPS (TLR4) 0.1 ug/mL), 0.746 in assay [3] (setting [6]), 0.0627 in assay [3] (setting [7]) and 0.155 in assay [3] (setting [8]).
On to `COC(=O)C1=C(C)NC(C)=C(C(=O)OCCN(C)Cc2ccccc2)C1c1cccc([N+](=O)[O-])c1.Cl` (configuration not stated), for which the figures for the “NF-kB SEAP reporter activity” value in assay [1] (setting [4]) and in assay [1] (setting [5]) were 0.66 and 0.838, respectively.
For the compound `COC(=O)C1=C(C)NC(C)=C(C(=O)OCCN(C)Cc2ccccc2)C1c1cccc([N+](=O)[O-])c1.Cl` (configuration not stated) (library stock concentration (final ~1000-fold dilution): 10 mM), the “NF-kB SEAP reporter activity” value in assay [3] (agonist: LPS (TLR4) 0.1 ug/mL) stood at 0.765; in assay [3] (setting [6]), 0.415; in assay [3] (setting [7]) it was 0.579; in assay [3] (setting [8]), 0.442.
For the compound `Nc1c(CC(=O)O)cccc1C(=O)c1ccccc1`, the “NF-kB SEAP reporter activity” value in assay [1] (setting [4]) was determined as 0.882; in assay [1] (setting [5]) it was 1.04.
For the compound `Nc1c(CC(=O)O)cccc1C(=O)c1ccccc1` (library stock concentration (final ~1000-fold dilution): 10 mM), the “NF-kB SEAP reporter activity” value in assay [3] (agonist: LPS (TLR4) 0.1 ug/mL) worked out at 1.07; in assay [3] (setting [6]), 0.974; in assay [3] (setting [7]), 1.12; in assay [3] (setting [8]), 1.21.
On the same counts, the results for `COc1cccc(C=Nc2cccc(C(=O)O)c2C)c1O` (library stock concentration (final ~1000-fold dilution): 1 mM) are 1.08, 1.3, 1.16 and 1.15.
Consider `COc1cccc(C=Nc2cccc(C(=O)O)c2C)c1O`, for which the “NF-kB SEAP reporter activity” value worked out at 1.42 in assay [1] (library stock concentration (final ~1000-fold dilution): 1 mM, cytotoxicity flag (confluency mask): not cytotoxic, agonist: Imiquimod (TLR7) […]) and 1.06 in assay [1] (library stock concentration (final ~1000-fold dilution): 1 mM, cytotoxicity flag (confluency mask): not cytotoxic, agonist: MPLA (TLR4) […]).
As for `Nc1nc(NC2CC2)c2ncn(C3C=CC(CO)C3)c2n1` (configuration not stated) (library stock concentration (final ~1000-fold dilution): 10 mM), the “NF-kB SEAP reporter activity” value worked out at 1.05 in assay [3] (agonist: LPS (TLR4) 0.1 ug/mL), 1.07 in assay [3] (setting [6]), 1.35 in assay [3] (setting [7]) and 1.07 in assay [3] (setting [8]).
Turning to `Nc1nc(NC2CC2)c2ncn(C3C=CC(CO)C3)c2n1` (configuration not stated), the “NF-kB SEAP reporter activity” value in assay [1] (setting [5]) was 1.16.
Consider `N=C1NC(=O)/C(=C/c2ccc(O)cc2)S1`, for which the “NF-kB SEAP reporter activity” value is 0.973 in assay [1] (setting [4]) and 0.96 in assay [1] (setting [5]).
With `N=C1NC(=O)/C(=C/c2ccc(O)cc2)S1` (library stock concentration (final ~1000-fold dilution): 10 mM), the “NF-kB SEAP reporter activity” value in assay [3] (agonist: LPS (TLR4) 0.1 ug/mL) was determined as 0.909; in assay [3] (setting [6]), 0.678; in assay [3] (setting [7]) it was 1.06; in assay [3] (setting [8]) it was 1.42.
On the same counts, the results for `CCCc1cc(C)[nH]c(=O)c1CNC(=O)c1cc(-c2ccc(N3CCN(C(C)C)CC3)nc2)cc2c1cnn2C(C)C` (library stock concentration (final ~1000-fold dilution): 10 mM) are 1.02, 0.24, 1.19 and 1.87.
On to `CCCc1cc(C)[nH]c(=O)c1CNC(=O)c1cc(-c2ccc(N3CCN(C(C)C)CC3)nc2)cc2c1cnn2C(C)C`, for which the “NF-kB SEAP reporter activity” value in assay [1] (setting [4]) amounted to 1.5; in assay [1] (setting [5]) it was 2.36.
Turning to `CCC(C)CCCCC(=O)NC(CCN)C(=O)NC(C(=O)NC(CCN)C(=O)NC1CCNC(=O)C(C(C)O)NC(=O)C(CCN)NC(=O)C(CCN)NC(=O)C(CC(C)C)NC(=O)C(Cc2ccccc2)NC(=O)C(CCN)NC1=O)C(C)O` (configuration not stated), the “NF-kB SEAP reporter activity” value turned out to be 0.984 in assay [1] (library stock concentration (final ~1000-fold dilution): 15 uM, cytotoxicity flag (confluency mask): not cytotoxic, agonist: Imiquimod (TLR7) […]) and 1.15 in assay [1] (library stock concentration (final ~1000-fold dilution): 15 uM, cytotoxicity flag (confluency mask): not cytotoxic, agonist: MPLA (TLR4) […]).
On to `CCC(C)CCCCC(=O)NC(CCN)C(=O)NC(C(=O)NC(CCN)C(=O)NC1CCNC(=O)C(C(C)O)NC(=O)C(CCN)NC(=O)C(CCN)NC(=O)C(CC(C)C)NC(=O)C(Cc2ccccc2)NC(=O)C(CCN)NC1=O)C(C)O` (configuration not stated) (library stock concentration (final ~1000-fold dilution): 15 uM), for which the “NF-kB SEAP reporter activity” value in assay [3] (agonist: LPS (TLR4) 0.1 ug/mL) stood at 0.273; in assay [3] (setting [6]), 1.16; in assay [3] (setting [7]) it was 0.936; in assay [3] (setting [8]), 0.877.
As to `CCCC(NC1CCc2cc(F)cc(F)c2C1)C(=O)Nc1cn(C(C)(C)CNCC(C)(C)C)cn1` (configuration not stated) (library stock concentration (final ~1000-fold dilution): 10 mM), the “NF-kB SEAP reporter activity” value in assay [3] (agonist: LPS (TLR4) 0.1 ug/mL) stood at 0.636; in assay [3] (setting [6]) it was 0.316; in assay [3] (setting [7]), 0.723; in assay [3] (setting [8]), 0.298.
On to `CCCC(NC1CCc2cc(F)cc(F)c2C1)C(=O)Nc1cn(C(C)(C)CNCC(C)(C)C)cn1` (configuration not stated), for which the “NF-kB SEAP reporter activity” value in assay [1] (setting [4]) is 0.373; in assay [1] (setting [5]), 0.669.
